Several values for one entry are separate records, joined by “and”; a condition that tells them apart may be missing. Equal entries are not always repeated.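 1) Cells in 96-well plates. 2) Compound, 48 h, 5 concentrations. 3) Linear interpolation between surrounding doses. 4) Unreached endpoint = highest concentration. GI50 = concentration required for 50% inhibition of growth. The concentration for full growth arrest is given as TGI.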 Bridge positions count the residues as written; N and C are the ends. Peptide text beside a SMILES is read from it.
tested on: NCI-H322M lung; assay: growth of human tumour cells (NCI), 48 h

COC(=O)/C(=N\Nc1nc(=S)[nH]n1N)C(C#N)c1ccc(Cl)cc1 (stereo unspecified) and O=C(N/N=C\c1ccc(Cl)cc1)Nc1cccc2ccccc12 cannot be ordered by TGI: > 100 µM for the first, > 43.3 µM for the second.

First: CC(Cn1c(=O)oc2ccccc21)N(C)C (stereo unspecified)
Second: CC(/C=C1\CCC(CN(C)C)C1=O)c1cccc(Br)c1 (stereo unspecified)
The TGI of the first is higher: > 100 µM for the first, 38.5 µM for the second.

N#Cc1ccc(C(=O)c2cnn(-c3ccc(F)cc3)c2N)cc1 and O=C(O)c1ccc(Nc2nc3ccc(C(F)(F)F)cc3nc2-c2ccccc2)cc1 cannot be ordered by TGI: > 25 µM for the first, > 100 µM for the second.

Cc1cnc2c(c1)C(=O)N(c1ccc(Br)cc1)S2(=O)=O and O=C1C(c2ccccc2)=[N+]([O-])c2cc([N+](=O)[O-])ccc21 cannot be ordered by TGI: > 100 µM for the first, > 100 µM for the second.

Going from CCCCCCCCCCCCCCCCCC(=O)NCC(COP(=O)([O-])OCC[N+](C)(C)C)OCC (stereo unspecified) to CCCCCCCCCCCCCC(=O)NO, the TGI rises from 33.4 µM to 61.8 µM (1.9-fold).

C/C(CC(=O)Nc1cccc([N+](=O)[O-])c1)=N/NC(N)=S and O=C(Nc1ccccc1)c1cc2cc(CCl)ccc2oc1=O cannot be ordered by TGI: > 100 µM for the first, > 100 µM for the second.

Going from NCCCC(N)(C(=O)O)C(F)F (stereo unspecified) to CC(C)(Cl)C(Cl)CC/C(CBr)=C(\Cl)CBr (stereo unspecified), the TGI falls from > 5000 µM to 26.1 µM.

First: Nc1nc(N)c(CCCCc2ccccc2)c(/C=C/c2ccc([N+](=O)[O-])cc2)n1
Second: CCCCCCc1cc2cc(-c3cn4ccccc4n3)c(=O)oc2cc1O
The TGI of the first is lower: 30.3 µM for the first, > 100 µM for the second.

CC[C@H](C)C(=O)O[C@H]1CCC=C2C=C[C@H](C)[C@H](CC[C@@H]3C[C@@H](O)CC(=O)O3)[C@H]21 and O=C(OCC1CC(C2(O)CCCCC2)C(=O)O1)c1ccccc1 (stereo unspecified) cannot be ordered by TGI: > 100 µM for the first, > 100 µM for the second.

Compared with CC1=C(C(=O)Nc2ccccc2C)C(c2ccccc2O)C(C(=O)Nc2ccccc2C)=C(C)N1, CC(=O)c1sc2c(c1OC(=O)c1ccccc1)c(=O)n(-c1ccccc1)c(=S)n2-c1ccccc1 is 4.1-fold lower in TGI: 81.4 µM for the first, 19.7 µM for the second.

COc1ccc2[nH]cc(Cc3c[nH]c4ccc(OC)cc34)c2c1 and c1cc2cc(Cc3ccc4[nH]ccc4c3)ccc2[nH]1 are within 1.5-fold of each other in TGI: 42.8 µM for the first, 36.3 µM for the second.

COc1c(N2CCCCC2)c2c(=O)c3ccccc3oc2c2c3ccccc3n(C)c12 and O=C1c2c(c3c4ccccc4n(CCCCCCN4CCOCC4)c3c3[nH]c4ccccc4c23)C(=O)N1O cannot be ordered by TGI: > 100 µM for the first, > 100 µM for the second.

First: O=C1CS(=O)c2ccccc2N1 (stereo unspecified)
Second: O=C1Nc2n[nH]c(=S)n2NC12c1ccccc1-c1ccccc12
The TGI of the first is higher: > 100 µM for the first, 29.2 µM for the second.

O=C(O)C1C2C=CC(O2)C1C(=O)NCc1ccncc1 (stereo unspecified) and Oc1ccccc1/C=N\Nc1ccccc1 cannot be ordered by TGI: > 100 µM for the first, > 100 µM for the second.

Compared with Cc1nnc(N)nc1C/C=C/C(C)Sc1ccc(Cl)cc1 (stereo unspecified), O=C(/C=C/c1ccc(O)c(O)c1)c1ccc(O)cc1O is lower in TGI: > 58.3 µM for the first, 17.2 µM for the second.

Compared with O=S1(=O)OCCOS(=O)(=O)C1(Br)Br, COc1cc2c(c(OC)c1)C(=O)C(=O)C(CC1(C)OCCCO1)=C2 is lower in TGI: > 100 µM for the first, 28.4 µM for the second.

C=C1CCCC2OC(OC)CCC12 (stereo unspecified) and CC[C@H](C)[C@H](NC(=O)[C@H]1CCCCN1C)C(=O)N(C)[C@H](C[C@@H](OC(C)=O)c1nc(C(=O)NC23C4C5C2C2C3C4C52C(=O)OC)cs1)C(C)C (stereo partly specified) cannot be ordered by TGI: > 100 µM for the first, > 25 µM for the second.

First: CCC1=CCC(P(=O)(c2ccccc2)c2ccccc2)CC1C (stereo unspecified)
Second: CCOP(=O)(OCC)C(NC(c1ccccc1)c1ccccc1)c1ccsc1 (stereo unspecified)
The TGI of the first is higher: > 100 µM for the first, 29.7 µM for the second.

Going from CC[C@@]1(O)C(=O)OCc2c1cc1n(c2=O)Cc2cc3cccc(N)c3nc2-1 to COC(=O)c1cc2c([nH]c3ccccc32)c(-c2nc3ccccc3cc2CO)n1, the TGI rises from 61.4 µM to > 100 µM.

First: Cc1cc(S(=O)(=O)Nc2nnc3c(Cl)cc(C(F)(F)F)cn23)c(S)cc1Cl
Second: O=C(Nc1cccc(-n2ccc3c(NC(=O)c4ccccc4)nccc32)c1)c1ccc(Cl)c(Cl)c1
The TGI of the first is higher: > 100 µM for the first, 2.1 µM for the second.

CCCCCCCCCCCCSC1=CC(=O)C=CC1=O and Cc1ccc(C(CCO)CCO)nc1 cannot be ordered by TGI: > 50 µM for the first, > 100 µM for the second.

CCOC(=O)C12CCC(c3c(C)cccc3C)(O1)C(C(=O)OC)=C2C(=O)OC (stereo unspecified) and COc1cc2c(cc1OC)-c1cc3cc(OC)c(OC)cc3c(C)[n+]1CC2 (tested in a mixture with another compound) cannot be ordered by TGI: > 10 µM for the first, > 100 µM for the second.

Going from CCC(C)C1NC(=O)C(CC(C)C)NC(=O)C(C(C)C)NC(=O)C2CSSCC(NC1=O)C(=O)N2 (stereo unspecified) (cyclo(CCVLI); disulfide 1-2; configuration not given here) to O=C(O)CCC1(CCC(=O)O)CCCCCCCCC(CCC(=O)O)(CCC(=O)O)C(=O)C1=O, the TGI rises from 0.303 µM to > 100 µM.

First: c1ccc(N2CCN(CCCN3CCc4c([nH]c5ccccc45)C3c3cccnc3)CC2)cc1 (stereo unspecified)
Second: [O-][N+]1=C(c2ccccc2)/C(=C2/C(c3ccccc3)=[N+]([O-])c3ccccc32)Cc2ccccc21
The TGI of the first is higher: > 100 µM for the first, 39.8 µM for the second.

Molecule COc1cc(C(=O)c2cnc(-c3ccc4cc[nH]c4c3)[nH]2)cc(OC)c1OC has a TGI of 15.4 µM.

First: N#Cc1ccc(C(=O)c2cnn(-c3ccc(F)cc3)c2N)cc1
Second: O=C(Nc1cccc(-n2ccc3c(NC(=O)c4ccccc4)nccc32)c1)c1ccc(Cl)c(Cl)c1
The GI50 of the first is higher: > 25 µM for the first, 0.615 µM for the second.

Compared with CC[C@H](C)C(=O)O[C@H]1CCC=C2C=C[C@H](C)[C@H](CC[C@@H]3C[C@@H](O)CC(=O)O3)[C@H]21, CC[C@@]1(O)C(=O)OCc2c1cc1n(c2=O)Cc2cc3cccc(N)c3nc2-1 is 3-fold higher in GI50: 6.85 µM for the first, 20.7 µM for the second.

Going from COc1ccc2[nH]cc(Cc3c[nH]c4ccc(OC)cc34)c2c1 to COc1cc(C(=O)c2cnc(-c3ccc4cc[nH]c4c3)[nH]2)cc(OC)c1OC, the GI50 falls from 17.8 µM to 0.0687 µM (260-fold).

Compared with O=C1c2c(c3c4ccccc4n(CCCCCCN4CCOCC4)c3c3[nH]c4ccccc4c23)C(=O)N1O, COC(=O)c1cc2c([nH]c3ccccc32)c(-c2nc3ccccc3cc2CO)n1 is higher in GI50: 25.9 µM for the first, > 100 µM for the second.

CCCCCCCCCCCCSC1=CC(=O)C=CC1=O and CCOP(=O)(OCC)C(NC(c1ccccc1)c1ccccc1)c1ccsc1 (stereo unspecified) are within 1.5-fold of each other in GI50: 18.7 µM for the first, 15.5 µM for the second.

In the case of Oc1ccccc1/C=N\Nc1ccccc1, the GI50 is reported as 21.5 µM.

For CC[C@H](C)[C@H](NC(=O)[C@H]1CCCCN1C)C(=O)N(C)[C@H](C[C@@H](OC(C)=O)c1nc(C(=O)NC23C4C5C2C2C3C4C52C(=O)OC)cs1)C(C)C (stereo partly specified), the GI50 was 0.00527 µM and 0.0116 µM.

From PubChem BioAssay (NCI)
